No constants are given. Whether binding was seen depends on the method and setting. In cells and extracts the contact can be indirect. Some results given as binding are weak or reduced against the parent protein; the word gives no strength. For some assays here: Where a sequence is shown, tags or fusion partners need not be part of it.

Common to all, as to assay: co-IP; HEK293T cotransfected with the two tagged proteins for 48 h (legends; the methods say 24 h); lysis buffer 50 mM Tris pH 7.2, 150 mM NaCl, 1% sodium deoxycholate, 1% Triton X-100; antibody overnight at 4 °C, protein A/G beads 2 h; co-IP and reverse co-IP; Western blot
For test [1], the target named is T1, GFP-pIRF3 (187–378 amino acids) (porcine) (UniProt Q764M6).
T1 sequence: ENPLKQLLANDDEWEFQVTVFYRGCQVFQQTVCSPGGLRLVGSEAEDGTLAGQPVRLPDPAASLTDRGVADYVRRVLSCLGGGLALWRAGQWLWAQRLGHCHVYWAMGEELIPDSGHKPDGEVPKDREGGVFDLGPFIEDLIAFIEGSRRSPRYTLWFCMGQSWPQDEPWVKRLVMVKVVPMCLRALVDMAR

Test [2] concerns the target GFP-pSTING L373A (porcine) (UniProt B8XX90).
Test [3] deals with GFP-pSTING (1–338 amino acids) (porcine) (UniProt B8XX90).
The target of test [4] is GFP-pSTING (191–338 amino acids) (porcine) (UniProt B8XX90).
Test [5] addresses T2, GFP-pIRF3 (porcine IRF3) (porcine) (UniProt Q764M6).
T2 sequence: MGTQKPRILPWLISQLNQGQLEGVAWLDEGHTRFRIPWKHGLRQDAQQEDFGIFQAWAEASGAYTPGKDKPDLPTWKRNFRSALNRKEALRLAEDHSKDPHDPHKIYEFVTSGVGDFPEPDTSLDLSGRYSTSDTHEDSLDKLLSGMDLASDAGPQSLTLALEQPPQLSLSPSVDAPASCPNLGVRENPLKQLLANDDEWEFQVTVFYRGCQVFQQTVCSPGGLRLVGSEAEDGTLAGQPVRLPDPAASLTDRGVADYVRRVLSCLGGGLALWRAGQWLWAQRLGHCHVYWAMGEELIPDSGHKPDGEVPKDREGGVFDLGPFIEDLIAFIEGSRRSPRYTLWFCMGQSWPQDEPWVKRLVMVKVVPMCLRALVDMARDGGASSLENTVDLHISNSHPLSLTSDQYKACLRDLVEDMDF

Test [6] addresses T3, GFP-pSTING (1–190 amino acids) (porcine) (UniProt B8XX90).
T3 sequence: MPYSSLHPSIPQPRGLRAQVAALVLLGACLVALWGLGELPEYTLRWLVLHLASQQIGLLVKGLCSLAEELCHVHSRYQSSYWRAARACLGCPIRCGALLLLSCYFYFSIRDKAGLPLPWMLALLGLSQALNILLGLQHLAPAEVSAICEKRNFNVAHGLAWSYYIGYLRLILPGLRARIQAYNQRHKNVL

The target of test [7] is GFP-pSTING (191–378 amino acids) (porcine) (UniProt B8XX90).
The target of test [8] is GFP-pSTING (porcine STING) (porcine) (UniProt B8XX90).

B1: mCherry-pIKKε (porcine IKKε) (protein, UniProt M9MMN5 1-718)
chain: MQSTVNYLWHTDDLLGQGATASVYKARNKKSGELVAVKVFNTASYLRPREVQVREFEVLRKLNHQNIIKLFAVEETGGSRQKVLVMEYCSSGSLLSVLESPENAFGLPENEFLVVLRCVVAGMNHLRENGIVHRDIKPGNIMRLVGEEGQSIYKLTDFGAARELDDDEKFVSVYGTEEYLHPDMYEQAVLRKPQQKAFGVTVDLWSIGVTLYHAATGSLPFIPYGGPRRNKEIMYRITSEKPAGAIAGIQKRENGPLEWSYTLPVTCQLSTGLQSQLVPILANILEVEQAKCWGFDQFFAETSDILQRVIVHVFSLPQAVLHHVYVHTHNTIAIFLEAVYEQTNVAPQHQEYLFEGHLCVLEPSLSAQHIAHTTASSPLTLFSVASEIPKGLAFRDPALDIPKFVPKVDLQADYNTAKGVLGAGYQALRLARALLAGQELMLRGLHWFVEILQATCKRTLEVTRMALLFLSSSLGNERSSSVAGVQEIQELKRVAEMRSQLRTLAEVLSRCSHNITETQMTLSNLSSELMKNRDQVHEDRSIQQIQCSLDKMCLIYKQFKKSRMRPGLGYNEEQIHKLDKMNFSHLAKRLLQVFQEERVQKYQASLVTHGKRMRLVHETRNHLRLVGCSVAACNTQAQGAQESLSQILDQLAHQLLQDRTRGAQASPPLMATYPNPGLKDLVLHMQELCEEMKLLACDLQDNNRIIEGLNRVPAAPDI
Turning to B1, the binding result in test [1] is listed as “binds”; in test [2], “no binding”; in test [3] it was “no binding”; in test [4], “no binding”; in test [5], “binds”; in test [6], “no binding”. Further, the binding entry in test [7] and in test [8] was “binds” in each case.

The values above are taken from PMC10520887.
